Experimental data as given in patent US10363298B2, “Immunomodulatory compounds” (priority 2014, dated 2019).
Read-outs that look alike come from different tables or passages of the source.

Legend:
[1] = molecular target: SpCBMTD (printed SpCBMT; CBM of S. pneumoniae NanA sialidase, residues 121-305, SEQ ID NO: 4, fused to trimerisation domain of P. aeruginosa pseudaminidase, residues 333-438, SEQ ID NO: 6) (Streptococcus pneumoniae, UniProt P62575); experiment: Surface plasmon resonance (Biacore T-100): binding to immobilized multivalent, biotinylated α-2,3-sialyllactose-PAA; conditions: mean ± s.d. of three replicates
[2] = molecular target: Sp2CBMTD (printed Sp2CBM; two tandem CBMs of S. pneumoniae NanA sialidase, residues 121-305, SEQ ID NO: 4, fused to trimerisation domain of P. aeruginosa pseudaminidase, residues 333-438, SEQ ID NO: 6) (Streptococcus pneumoniae, UniProt P62575); experiment: as above; conditions: mean ± s.d. of three replicates
[3] = read-out: ka (association ('on') rate constant), 15 °C
[4] = read-out: ka (association ('on') rate constant), 25 °C
[5] = read-out: ka (association ('on') rate constant), 37 °C
[6] = read-out: kd (dissociation ('off') rate constant), 15 °C
[7] = read-out: kd (dissociation ('off') rate constant), 25 °C
[8] = read-out: kd (dissociation ('off') rate constant), 37 °C

CC(=O)N[C@H]1[C@H]([C@H](O)[C@H](O)CO)O[C@@](O[C@H]2[C@@H](O)[C@@H](CO)O[C@@H](O[C@H]3[C@H](O)[C@@H](O)C(O)O[C@@H]3CO)[C@@H]2O)(C(=O)O)C[C@@H]1O (stereo partly drawn) [α-2,3-sialyllactose]
kon [1, 3]: 730000 ± 10000 M⁻¹ s⁻¹
kon [1, 4]: 3.49e+06 ± 20000 M⁻¹ s⁻¹
kon [1, 5]: 1.95e+06 ± 10000 M⁻¹ s⁻¹
koff [1, 6]: 0.0003 ± 1e-05 s⁻¹
koff [1, 7]: 0.00137 ± 1e-05 s⁻¹
koff [1, 8]: 0.0009 ± 1e-05 s⁻¹
kon [2, 3]: 30000 M⁻¹ s⁻¹
kon [2, 4]: 2.39e+06 ± 10000 M⁻¹ s⁻¹
kon [2, 5]: 700000 ± 10000 M⁻¹ s⁻¹
koff [2, 6]: 0.00056 ± 4e-05 s⁻¹
koff [2, 7]: 0.00135 ± 1e-05 s⁻¹
koff [2, 8]: 0.00365 ± 4e-05 s⁻¹
